Test results taken from publication PMC4336329 (PLoS ONE, 2015).
Out of some 310,000 compounds screened, about 2,200 (0.71%) showed an effect of 50% or more. Effects have a minus sign here. Some of the results follow.

target: human ether-à-go-go-related gene (hERG) potassium channel (human, UniProt Q12809); experiment: primary screen, population patch clamp on CHO cells stably expressing hERG
Sequence (Q12809 whole entry, looked up): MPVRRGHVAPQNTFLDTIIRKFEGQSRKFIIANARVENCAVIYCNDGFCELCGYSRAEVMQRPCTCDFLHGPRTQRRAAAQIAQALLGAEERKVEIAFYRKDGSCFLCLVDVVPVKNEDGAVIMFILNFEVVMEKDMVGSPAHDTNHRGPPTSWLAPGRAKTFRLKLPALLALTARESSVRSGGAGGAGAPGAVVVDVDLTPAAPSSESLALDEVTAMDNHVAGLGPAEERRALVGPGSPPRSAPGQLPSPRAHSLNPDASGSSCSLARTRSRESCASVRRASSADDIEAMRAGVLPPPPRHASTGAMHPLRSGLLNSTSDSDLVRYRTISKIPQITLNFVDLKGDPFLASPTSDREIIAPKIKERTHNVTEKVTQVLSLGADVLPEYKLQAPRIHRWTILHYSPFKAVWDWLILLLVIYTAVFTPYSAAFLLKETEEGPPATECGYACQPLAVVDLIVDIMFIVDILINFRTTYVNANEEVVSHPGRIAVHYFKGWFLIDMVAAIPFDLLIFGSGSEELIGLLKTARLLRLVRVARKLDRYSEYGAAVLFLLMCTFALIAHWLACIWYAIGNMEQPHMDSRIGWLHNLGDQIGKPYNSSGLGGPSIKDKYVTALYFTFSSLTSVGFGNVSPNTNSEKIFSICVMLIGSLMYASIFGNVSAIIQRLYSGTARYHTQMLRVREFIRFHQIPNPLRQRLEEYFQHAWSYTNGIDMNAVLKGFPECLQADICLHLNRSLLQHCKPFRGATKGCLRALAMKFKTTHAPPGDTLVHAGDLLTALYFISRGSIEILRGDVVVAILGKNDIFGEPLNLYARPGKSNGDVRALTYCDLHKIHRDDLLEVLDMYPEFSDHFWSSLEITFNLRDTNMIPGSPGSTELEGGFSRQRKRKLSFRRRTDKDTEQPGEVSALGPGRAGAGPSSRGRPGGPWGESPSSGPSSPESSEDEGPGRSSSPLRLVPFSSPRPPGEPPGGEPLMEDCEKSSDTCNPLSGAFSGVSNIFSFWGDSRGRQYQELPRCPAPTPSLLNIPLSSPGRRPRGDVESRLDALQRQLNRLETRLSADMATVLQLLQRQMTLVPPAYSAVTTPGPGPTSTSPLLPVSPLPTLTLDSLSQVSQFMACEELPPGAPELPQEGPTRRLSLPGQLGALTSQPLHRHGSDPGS

Row | Structure (SMILES) | hERG current change (%, negative = inhibition) at 1uM [%]
1 | O=C(CSc1nc2c(c(=O)n1-c1ccc(F)cc1)SCC2)NCC1CCCO1 (stereo not drawn) | -3.31
2 | C/C(CC(=O)Nc1ccc(Cl)cc1Cl)=N\NC(=O)C(=O)NCCO | 13.2
3 | CC(=O)Nc1ccc(NC(=O)c2ccc(N(C)S(=O)(=O)c3ccc(C)cc3)cc2)cc1 | -1.11
4 | Cc1ccc(N2CC(C(=O)N/N=C/c3sccc3C)CC2=O)cc1 (stereo not drawn) | -4.06
5 | CCC1(C)COC2(OC1)C(=O)Nc1ccccc12 (stereo not drawn) | 13.9
6 | Cc1csc(NC(=O)CSc2nnc(-c3ccccn3)n2-c2ccc(C)c(C)c2)n1 | -57.4
7 | CCCN1CCN(CC(=O)Nc2nnc(C)s2)CC1 | 21.5
8 | O=C(CNC(=O)c1cccc(Cl)c1)N/N=C/C=C/c1ccccc1 | 12.1
9 | CCc1nnc(NC(=O)CN2CCN(Cc3cccc(Cl)c3)CC2)s1 | 9.56
10 | COc1ccc(C(=O)N/N=C(\C)CC(=O)Nc2ccc(N(C)C)cc2)c(OC)c1 | 11.5
11 | CCCn1c(NCc2cccc(OC)c2O)nc2ccccc21 | -4.05
12 | COc1ccc(OC)c(C(=O)C2COC(=O)C2)c1 (stereo not drawn) | 16.2
13 | CSc1ccccc1NC(=O)COc1ccc(Cl)cc1Cl | 2.11
14 | O=C1c2ccccc2NC(c2ccco2)N1NS(=O)(=O)c1ccccc1 (stereo not drawn) | 12.7
15 | COc1ccccc1-c1nnc2sc(COc3ccccc3)nn12 | 7.55
16 | O=C(CN1CCN(S(=O)(=O)c2ccc(F)cc2)CC1)NC1CCCC1 | 10.9
17 | CC(C)c1nccn1CCC(=O)O.Cl | 9.47
18 | O=[N+]([O-])c1ccccc1CSc1nc2ccccc2o1 | 13.1
19 | CCc1ccc(CN2CCN(c3ncccn3)CC2)cc1 | 2.39

Row | Structure (SMILES) | hERG current change (%, negative = inhibition) at 1uM [%]
20 | Fc1ccc(N/N=C/c2ccncc2)c(F)c1 | -1.53
21 | Cc1ccc(NC(=O)CN2CCc3ccccc3C2)cc1F | 6.77
22 | CCN(CC)C(=O)CN1C(=O)C2CC=C(Cl)CC2C1=O (stereo not drawn) | 2.63
23 | COc1ccc(/C=C2\SC(=O)N(CCNC(=O)C3CSC4(C)CCC(=O)N34)C2=O)cc1 (stereo not drawn) | 3.29
24 | CCC(C)N1C(=O)NC(=O)C2(Cc3cc(C)ccc3N(C)C2)C1=O (stereo not drawn) | 11.7
25 | Cc1cc(=O)[nH]c(SCC(=O)NC(c2ccccc2)c2ccccc2)n1 | 2.56
26 | O=C1CSC(=S)N1/N=C/C=C/c1ccccc1 | 13.5
27 | Cc1c(C(=O)NCCS(=O)(=O)N2CCN(c3ccccc3F)CC2)cccc1[N+](=O)[O-] | 13.7
28 | O=S(=O)(Nc1nc2ccccc2nc1NCc1ccco1)c1ccc(F)cc1 | 16
29 | CCn1c(O)c(N=N)c2ccccc21 | 11.7
30 | Cc1ccc(C)c(S(=O)(=O)NCc2ccc(C(=O)N3CCN(C)CC3)cc2)c1 | 6.45
31 | CC(NC(=O)c1ccco1)c1ccc2c(c1)OCCO2 (stereo not drawn) | 14.9
32 | OCC[C@@H]1C[C@@H](O)[C@H](O)[C@]2(OCc3ccccc32)O1 | 14.5
33 | COC(=O)c1cc(=O)n(Cc2cccs2)c(=Nc2ccc(F)cc2)s1 | 7.23
34 | COC(=O)[C@@]12CCCN1[C@H](c1ccc(-c3ccc(OC)cc3)cc1)[C@@H]1C(=O)N(C)C(=O)[C@@H]12.O=C(O)C(F)(F)F | 9.84
35 | CCOC(=O)c1cnc2ccc(C(=O)OC)cc2c1NCCN1CCOCC1 | 2.7
36 | CCOCCCn1c(=NC(=O)c2cccs2)c(C#N)cc2c(=O)n3ccccc3nc21 | -49.3
37 | O=C(Oc1cc2oc(=O)c3c(c2cc1Cl)CCCC3)c1cccs1 | 16.5
38 | COc1ccc(-c2c/c(=N\c3nc(-c4ccccc4)c(C)s3)c3ccccc3o2)cc1O | 11.9

Row | Structure (SMILES) | hERG current change (%, negative = inhibition) at 1uM [%]
39 | Cc1ccccc1N(CC(=O)Nc1ccccc1C(=O)NCc1ccco1)S(=O)(=O)c1ccccc1 | 5.84
40 | CN(C)CCN(Cc1cccs1)S(=O)(=O)c1csc(C(N)=O)c1 | 9.27
41 | Cc1cc(-c2nc(C)c(-c3nnc(SCC(=O)Nc4ccccc4)n3C)s2)no1 | 9.64
42 | S=C(Nc1ccccc1)N1CCC(Cc2ccccc2)CC1 | 13.1
43 | O=C(COC(=O)COc1ccc(Br)cc1)NC1CCCCCC1 | 1.82
44 | Cc1[nH]n(C2=NCCS2)c(=O)c1N=Nc1cccc(C(F)(F)F)c1 | 0.0638
45 | CNc1nc(NC)nc(-n2c(C(F)(F)F)nc3ccccc32)n1 | 3.3
46 | CC(=O)NCc1cc(-c2nn(C)c(=O)c3ccccc23)ccc1C | 8.54
47 | CCC(C)Sc1nc(O)cc(=O)[nH]1 (stereo not drawn) | 11.4
48 | O=C(c1cc(S(=O)(=O)N2CCOCC2)ccc1F)N1CCC2(CC1)OCCO2 | -7.67
49 | COc1ccc(CN(C)CC(O)COc2ccc(-c3ccccc3)cc2)cc1OC (stereo not drawn) | 0.124
50 | O=C1/C(=C/c2ccccc2)CCCc2ccccc21 | 12
51 | O=C(O)c1cccc(N2C(=O)c3cccc(Oc4ccc(Cl)cc4)c3C2=O)c1 | 13.3
52 | COc1ccc(NC(=O)Nc2ccc(N3CCOCC3)c3nonc23)c(OC)c1 | 16.5
53 | CCN1CCN(C(=O)c2cc(-c3ccco3)nc3ccccc23)CC1 | -6.15
54 | Cc1cc(=O)nc2c3ccccc3n(CC(=O)NC(C)c3ccc4c(c3)OCCO4)n12 (stereo not drawn) | 10.4
55 | CCOc1ccccc1-n1c(SCC(=O)Nc2ccc(CC)cc2)nc2n[nH]c(C)c2c1=N | 9.67
56 | COc1ccc(C2CC(=O)N3CN(c4ccc(C)c(Cl)c4)CSC3=C2C#N)cc1OC (stereo not drawn) | 2.68
57 | CCOC(=O)c1c(NC(=O)CN2C(=O)NC(C)(c3ccc(OC(F)F)cc3)C2=O)sc(C)c1C (stereo not drawn) | 10.6
